# Laboratory results published in the supplement of paper PMC11417369.
# Some of the results follow.
# System: PF3D7_0420300 AP2 domain 1 (GST-tagged)
# Assay: gcPBM binding intensity (ln(normalized median fluorescence intensity)); higher = stronger DNA binding
# Outline: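 An Agilent 4 × 180k array of primer-extended double-stranded 36-bp intergenic genomic probes, with negative controls, was incubated for 1 h with GST-tagged P. falciparum DNA-binding domains expressed in E. coli. Alexa488 anti-GST antibody detected bound protein, scanned at 488 nm. Binding intensity is the highest Masliner-normalised natural-log median intensity across replicate spots of either probe orientation.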
row,Sequence,gcPBM binding intensity (ln)
1,ATAAACATCGGTAGTACACACATTCATGTACTTGAT [CACACA_site3037],9.58
2,ATTTAATAAAAAAAAAAAATATTGTAGAATATGATG [GTGCAC_negctrl_site195],9.17
3,CAAATGGTAAATGAAAGTACAAATTGTTTTGATTAA [XGTACX_site1536],9.09
4,ATATACATATTCTTGTGTACATAAAAATTTATATAT [XGTACX_site8726],9.23
5,AGAATATTTATATGATGTACTTATATATATATATAT [XGTACX_site3021],9.24
6,CAGAAATATTAATGCTGTACGGAATACATATATTTT [XGTACX_site539],9.24
7,ATTTTAATGGGACATGCATGGGACAAACTACAAATT [TGCATGCA_site853],9.44
8,TATATATTAAAACACACACACATATATATATATATA [CACACA_site3787],9.67
9,AATAAAAACTACATGTGTACATAATAAATACATATA [XGTACX_site755],9.53
10,TTTTTTCTTTTCTTTTTATTTTATTTTGTTTTATTT [CACACA_negctrl_site799],9.61
11,ATAATCCAAAAAAATCAAATAAAATAAAATAAAATA [CACACA_negctrl_site449],9.16
12,TAAAAATATTTAAACTGTACTATTTTATGTTAAATG [XGTACX_site6620],9.03
13,TGAACCAGATTTAGAAGTACTAAATATTACATACAT [XGTACX_site2437],9.13
14,TATATATTAGAAGATAGTACATATATATTTATTAAT [XGTACX_site1011],9.16
15,GCTCAATGTTTTACATGTACATATATATATATATAT [XGTACX_site8210],9.44
16,TGGTGATCAAAATATACATGCATATGTTCTGTTATT [TGCATGCA_site614],9.37
17,TATGATATCTATAATACACACATATACATAAGATCT [CACACA_site6652],9.54
18,TTAATATAACTTTTTGCACACTTAATTTTTTTTTTT [CACACA_site3364],9.44
19,TTATATAAAACATTAACACACAAAGAAAAAAAATTA [CACACA_site1793],9.73
20,TATTTTTACCCATAAAGTACACATAAATATAAAATA [XGTACX_site177],9.17
21,TATATATCTATATATTGTACATATGTTTGTATGTGT [XGTACX_site7420],9.42
22,ATATAAATCATTGGTTGTACATATAATATTTTATAA [XGTACX_site925],9.15
23,TAATATTTCTTATTTTATATTTGTATATGAATGGAT [XGTACX_negctrl_site278],9.17
24,CAAGTTCAAAATACAAGGAAGAAACAAAACTTGGCG [GTGCAC_negctrl_site600],9.55
